Hit rate of the full screen: of about 310,000 compounds, about 14,000 (4.5%) showed an effect of 50% or more. Effects have a minus sign here. The list shows a part of the results.

From article PMC4336329 (PLoS ONE, 2015) come the findings set out here.
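Also: peak tail current of the secondary pulse compared with the same well before compound.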

human ether-à-go-go-related gene (hERG) potassium channel, sequence (Q12809 whole entry, looked up): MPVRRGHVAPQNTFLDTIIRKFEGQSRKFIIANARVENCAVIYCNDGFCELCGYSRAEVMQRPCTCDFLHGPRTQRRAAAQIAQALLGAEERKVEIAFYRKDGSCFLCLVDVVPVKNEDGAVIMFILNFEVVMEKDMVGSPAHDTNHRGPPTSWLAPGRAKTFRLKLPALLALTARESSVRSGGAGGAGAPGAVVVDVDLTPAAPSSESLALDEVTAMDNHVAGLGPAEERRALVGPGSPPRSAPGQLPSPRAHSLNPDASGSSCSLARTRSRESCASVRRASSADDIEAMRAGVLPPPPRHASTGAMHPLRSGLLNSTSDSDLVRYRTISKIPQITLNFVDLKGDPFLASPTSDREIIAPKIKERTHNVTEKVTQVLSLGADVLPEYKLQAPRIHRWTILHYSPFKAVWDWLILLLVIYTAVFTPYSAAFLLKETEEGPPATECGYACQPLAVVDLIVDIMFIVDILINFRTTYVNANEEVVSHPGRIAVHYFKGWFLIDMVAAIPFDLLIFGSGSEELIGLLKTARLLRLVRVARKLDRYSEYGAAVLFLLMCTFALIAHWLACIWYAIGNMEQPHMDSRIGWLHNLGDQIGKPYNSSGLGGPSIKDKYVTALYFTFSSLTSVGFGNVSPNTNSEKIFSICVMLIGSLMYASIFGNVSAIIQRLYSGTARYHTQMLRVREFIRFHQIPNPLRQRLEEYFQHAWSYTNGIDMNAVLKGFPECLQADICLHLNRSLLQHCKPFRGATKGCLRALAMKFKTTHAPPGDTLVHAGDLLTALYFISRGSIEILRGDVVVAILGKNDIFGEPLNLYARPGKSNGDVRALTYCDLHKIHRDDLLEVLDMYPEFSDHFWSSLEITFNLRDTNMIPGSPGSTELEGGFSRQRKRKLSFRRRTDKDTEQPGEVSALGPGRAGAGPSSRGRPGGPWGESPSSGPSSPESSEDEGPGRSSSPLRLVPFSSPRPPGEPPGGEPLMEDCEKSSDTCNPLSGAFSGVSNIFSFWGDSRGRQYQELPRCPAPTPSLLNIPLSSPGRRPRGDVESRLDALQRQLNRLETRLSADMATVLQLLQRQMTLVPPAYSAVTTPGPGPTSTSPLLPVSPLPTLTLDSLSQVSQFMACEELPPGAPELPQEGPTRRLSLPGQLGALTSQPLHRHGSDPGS

This assay addresses human ether-à-go-go-related gene (hERG) potassium channel (human, UniProt Q12809). The assay is described as follows: primary screen, population patch clamp on CHO cells stably expressing hERG.
Regarding `C=C(C)CSc1nnc2[nH]c(=O)cc(N)n12`, the “hERG current change (%, negative = inhibition) at 10uM” value is listed as 14.7%.
With `c1ccc(P(c2ccccc2)c2ccccn2)cc1`, the “hERG current change (%, negative = inhibition) at 10uM” value is reported as -40.1%.
As to `C[N+](C)(CC#Cc1ccccc1)CC(=O)c1ccccc1.[Br-]`, the “hERG current change (%, negative = inhibition) at 10uM” value is listed as -13.5%.
For `O=c1[nH]ncc2c3ccccc3n(Cc3ccccc3)c12`, the “hERG current change (%, negative = inhibition) at 10uM” value is 15.8%.
For `Cc1noc(C)c1COC(=O)c1cnc(Cl)c(Cl)c1`, the “hERG current change (%, negative = inhibition) at 10uM” value is listed as -7.26%.
For `O=C(CSc1ncnc2ccccc12)NCc1ccc2c(c1)OCO2` the value was -16.9%; for `COc1cc(NC(=O)CN(c2ccc(C)cc2)S(=O)(=O)c2c(C)noc2C)cc(OC)c1`, 16.3%.
For `O=C(O)Cn1nc(-c2ccc(F)cc2)oc1=O`, the “hERG current change (%, negative = inhibition) at 10uM” value worked out at 8.59%.
For `CCC(C(=O)NCc1ccc(C)cc1)c1ccccc1` (centres unmarked) the value was -1.35%; for `CCOc1ccccc1NC(=S)N1CCN(c2nc(-c3ccc(F)cc3)cs2)CC1`, 19.5%.
For `CCCCC(=O)Nc1c2c(nn1-c1ccc(C)cc1)CS(=O)(=O)C2`, the “hERG current change (%, negative = inhibition) at 10uM” value was -7.52%.
For the compound `CCOc1ccc(CCNC(=O)c2ccc(S(=O)(=O)N3CCCC3)cc2)cc1OCC`, the “hERG current change (%, negative = inhibition) at 10uM” value was -8.47%.
`O=C(Nc1ccccc1O)c1ccc(NC(=O)C2CC2)cc1`: the “hERG current change (%, negative = inhibition) at 10uM” value was determined as 9.92%.
The same measure for `Cc1c(NC(=O)C2CCN(S(=O)(=O)c3ccccc3)CC2)c(=O)n(-c2ccccc2)n1C`: 4.47%.
Take `CCN1CCN(C(=O)c2ccccc2NS(=O)(=O)c2ccc(Cl)cc2)CC1.Cl`: the “hERG current change (%, negative = inhibition) at 10uM” value is given as 0.707%.
For `COc1cc(C=O)ccc1OS(=O)(=O)c1ccccc1[N+](=O)[O-]` the value was 4.1%; for `CCN(CC)CCCN=Cc1c(O)n(Cc2ccccc2)c(=O)c2ccccc12`, -76.7%.
The same measure for `CN(C)Cc1c(C(=O)N/N=C/c2cccc(OCc3c(F)cccc3Cl)c2)nnn1-c1nonc1N`: 18.1%; for `CC1CCN(CCOCCOc2ccc(Br)cc2Cl)CC1.O=C(O)C(=O)O`: -75.5%.
Turning to `Cn1cccc1Cc1nnc(SCC(=O)Nc2nccs2)n1CCc1ccccc1`, the “hERG current change (%, negative = inhibition) at 10uM” value is reported as -9.58%.
Consider `O=C(C1=C(O)C(=O)N(CC2CCCO2)C1c1cccnc1)c1ccco1` (centres unmarked), for which the “hERG current change (%, negative = inhibition) at 10uM” value is 7.52%.
On to `Cc1cc(C2=NNC(=NCCc3ccccc3)SC2)c(C)n1-c1c(C)n(C)n(-c2ccccc2)c1=O`, for which the “hERG current change (%, negative = inhibition) at 10uM” value is on record as -1.1%.
The same measure for `Cc1ccc(N(C(C)C(=O)Nc2ccc3c(c2)OCO3)S(C)(=O)=O)cc1` (centres unmarked): -2.38%; for `C=CCn1c(O)c(N=Nc2ccccc2C)c2ccccc21`: 4.06%.
`COc1ccc(-c2cc3c(=O)n(CC(=O)Nc4ccc(C(C)=O)cc4)ncn3n2)cc1`: the “hERG current change (%, negative = inhibition) at 10uM” value is 23.2%.
As to `COc1ccc(NC(=O)c2ccc(NC(=O)CCS(=O)(=O)c3cccs3)cc2)cc1`, the “hERG current change (%, negative = inhibition) at 10uM” value came to 19.6%.
For `CCCCCCN1CC(=O)N2[C@@H](Cc3c([nH]c4ccccc34)C2(C)C)C1=O` the value was 13.9%; for `CCc1ccc(NC(=O)c2cc(-c3ccco3)on2)cc1`, 3.72%.
As to `CC1=NN(c2ccccc2C(=O)O)C(=O)C1N=Nc1ccccc1` (centres unmarked), the “hERG current change (%, negative = inhibition) at 10uM” value is given as -3.05%.
Consider `CCCC(=O)OCCn1c(Br)nc2c1c(=O)[nH]c(=O)n2C`, for which the “hERG current change (%, negative = inhibition) at 10uM” value came out at 16.9%.
As to `Cc1nc2c(C)cccc2c(SC(=N)N)c1CC=C(Cl)Cl.Cl`, the “hERG current change (%, negative = inhibition) at 10uM” value is 6.48%.
The same measure for `O=C(CSCC(=O)Nc1cccc2ccccc12)Nc1cccc2ccccc12`: 20%.
Take `O=C(NNC(=S)NC(=O)c1sc2ccccc2c1Cl)c1ccc(Cl)cc1`: the “hERG current change (%, negative = inhibition) at 10uM” value is 18.3%.
As for `O=C(NCc1ccncc1)c1ccc(Br)o1`, the “hERG current change (%, negative = inhibition) at 10uM” value worked out at 2.19%.
For `O=C(Nc1nnc(C23CC4CC(CC(C4)C2)C3)s1)c1ccc(N2C(=O)CCC2=O)cc1` the value was 16.8%.
As for `CCOc1cc(/C=N/Nc2nnc(C)n2N)ccc1OC(C)=O.Cl`, the “hERG current change (%, negative = inhibition) at 10uM” value stood at 7.69%.
On to `CC1CN=C(NC(C)c2ccccc2)S1` (centres unmarked), for which the “hERG current change (%, negative = inhibition) at 10uM” value stood at 2.35%.
For `O=[N+]([O-])c1ccc(N2CCCC2)cc1NC(c1ccccc1)c1ccccc1`, the “hERG current change (%, negative = inhibition) at 10uM” value came to 8.49%.
As for `CCc1[nH]nc2c1C1(CCN(C(=O)OCc3ccccc3)CC1)C(C#N)=C(N)O2`, the “hERG current change (%, negative = inhibition) at 10uM” value stood at 13.3%.
Consider `CC1CCN(c2c(NCc3ccc(C(=O)NCC4COc5ccccc5O4)cc3)c(=O)c2=O)CC1` (centres unmarked), for which the “hERG current change (%, negative = inhibition) at 10uM” value worked out at 3.59%.
For `c1ccc2c(c1)nc(-c1ccncc1)n2CCNc1nc(CN2CCCCC2)cs1`, the “hERG current change (%, negative = inhibition) at 10uM” value is -4.11%.
Regarding `CCCCN(C)CCN1C(=O)C2C(C(=O)Nc3ccc(Cl)cc3)C3C=CC2(O3)C1C(=O)NC1CCCCC1` (centres unmarked), the “hERG current change (%, negative = inhibition) at 10uM” value is listed as -70.2%.
`COc1cccc(C(=O)COC(=O)C(C)N2C(=O)c3ccccc3C2=O)c1` (centres unmarked): the “hERG current change (%, negative = inhibition) at 10uM” value is recorded as -7.25%.
With `O=C(Nc1nc2nccc(-c3ccccc3)n2n1)c1ccccc1`, the “hERG current change (%, negative = inhibition) at 10uM” value is given as -7.16%.
In the case of `CCOc1cccc(CN2CCC(n3nccc3NC(=O)c3ccc4c(c3)OCO4)CC2)c1`, the “hERG current change (%, negative = inhibition) at 10uM” value is recorded as -43.2%.
For `CC(C)OCCCN1CN(S(=O)(=O)c2ccccc2)c2nc3ccccc3nc21` the value was -4.27%.
For `COc1ccc(-c2ccc3nnc(SCC(=O)N4CCCC4)n3n2)cc1` the value was -23%; for `COc1ccc(NC(=O)CC2C(=O)OCC3CCCCN32)cc1Cl` (centres unmarked), -34%; for `CC(NC(=O)CCc1ccccc1)c1ccc2c(c1)OCO2` (centres unmarked), 12.8%.
In the case of `COC(=O)c1ccccc1C(=O)N1CCCC(C(=O)c2ccc(OC)c(OC)c2)C1` (centres unmarked), the “hERG current change (%, negative = inhibition) at 10uM” value turned out to be 4.47%.
As for `Cc1c(NC(=O)/C(C#N)=C\c2cccs2)c(=O)n(-c2ccccc2)n1C`, the “hERG current change (%, negative = inhibition) at 10uM” value came out at 0.478%.
As to `CCCCN1C(=O)/C(=C/c2ccc(N(C)C)cc2)C(=O)N(Cc2ccco2)C1=O`, the “hERG current change (%, negative = inhibition) at 10uM” value is 7.86%.
As to `O=C(NNc1nc2ccccc2s1)Nc1ccccc1`, the “hERG current change (%, negative = inhibition) at 10uM” value is -2.48%.
For `Cc1ccc(N2C(=O)c3cccc4c(N5CCN(C)CC5)ccc(c34)C2=O)c2cccnc12`, the “hERG current change (%, negative = inhibition) at 10uM” value was found to be 7.73%.
`COc1ccccc1/C=N/n1nnnc1N`: the “hERG current change (%, negative = inhibition) at 10uM” value came to 12%.
Turning to `Cc1cc(-c2cccc([N+](=O)[O-])c2)nc2ccccc12`, the “hERG current change (%, negative = inhibition) at 10uM” value is on record as -1.46%.
On to `CC(=O)c1cccc(NS(=O)(=O)N2CCOCC2)c1`, for which the “hERG current change (%, negative = inhibition) at 10uM” value came out at 4.56%.
Turning to `CN(C)C(CNC(=O)c1ccc(NS(=O)(=O)c2ccc3[nH]c(=O)[nH]c3c2)cc1)c1ccccc1` (centres unmarked), the “hERG current change (%, negative = inhibition) at 10uM” value came to 5.51%.
Consider `CCCCOC(=O)C1Cc2ccccc2C(=O)O1` (centres unmarked), for which the “hERG current change (%, negative = inhibition) at 10uM” value is -13.4%.
Turning to `O=C(NCc1ccco1)C(c1cccnc1)N(C(=O)Cn1nnc2ccccc21)c1ccc(F)cc1` (centres unmarked), the “hERG current change (%, negative = inhibition) at 10uM” value worked out at 10.7%.
Take `CCOC(=O)N1CCC(NC(=O)CSCc2nc(-c3ccc(OCC)cc3)oc2C)CC1`: the “hERG current change (%, negative = inhibition) at 10uM” value is -46.3%.
As for `COc1ccc(OCc2cc(C(=O)N3C[C@@H](C)O[C@@H](C)C3)no2)c(Cl)c1`, the “hERG current change (%, negative = inhibition) at 10uM” value is recorded as -15%.
`Cc1ccc(C2N(c3ccccc3)C(=O)N3CCCN23)cc1` (centres unmarked): the “hERG current change (%, negative = inhibition) at 10uM” value stood at 2.63%.
`Cc1ccc(N2C(=O)C(Cl)=C(NCCO)C2=O)c(C)c1`: the “hERG current change (%, negative = inhibition) at 10uM” value is -2.41%.
Turning to `O=C(O)c1ccc(/C=N/N2CCN(Cc3ccc(Cl)cc3)CC2)cc1`, the “hERG current change (%, negative = inhibition) at 10uM” value was 19.5%.
Turning to `Cc1ccc(NS(=O)(=O)N2CCOCC2)c(C)c1`, the “hERG current change (%, negative = inhibition) at 10uM” value came out at 10.2%.
The same measure for `CC(C)Oc1ccc(CNC(=O)Cn2c(=O)oc3ccccc32)cc1`: -7.93%; for `Cc1oc2cc(O)ccc2c(=O)c1Oc1ccc2ccccc2c1`: -49.6%; for `O=C(CN1CCN(c2ccccc2O)CC1)Nc1ccccc1C(=O)NCCc1ccccc1`: 46.2%.
In the case of `Cc1ccc(NC(=O)CS(=O)CC(=O)N2CCN(c3ccccc3)CC2)cc1` (centres unmarked), the “hERG current change (%, negative = inhibition) at 10uM” value worked out at 11.8%.
For `COC(=O)CCCC1=CC2=CC(=O)C(C)(OC(=O)c3cnc4ccccc4n3)C(=O)C2=CO1` (centres unmarked), the “hERG current change (%, negative = inhibition) at 10uM” value worked out at 7.07%.
On to `Cc1ccc(-n2c(C)c(C)c3c(NCCO)ncnc32)cc1`, for which the “hERG current change (%, negative = inhibition) at 10uM” value was determined as 6.27%.
With `N#CCCN1CCN(S(=O)(=O)c2ccc(S(=O)(=O)NCc3ccccc3)cc2)CC1`, the “hERG current change (%, negative = inhibition) at 10uM” value is -2.09%.
The same measure for `O=C(Nc1ccc(CN2CCCCC2)cc1)c1cc(Br)ccc1Cl`: -20.3%; for `COc1cc(/C=C2/C(=O)CNC2=O)ccc1O`: 12.2%; for `Oc1c(CN2CCN(c3ccc(F)cc3)CC2)cc(Cl)c2cccnc12`: -24.4%.
On to `O=C(O)c1cccc(-c2ccc(/C=N/NC(=O)C3COc4ccccc4O3)o2)c1` (centres unmarked), for which the “hERG current change (%, negative = inhibition) at 10uM” value amounted to 1.12%.
With `Cc1cc(Br)ccc1NC(=O)CN(C)C(=O)CNC(=O)Cc1ccccc1`, the “hERG current change (%, negative = inhibition) at 10uM” value is listed as -8.23%.
The same measure for `CCOc1cc(C(=O)NC(C)c2ccncc2)cc(OCC)c1OCC` (centres unmarked): -5.74%; for `COc1cc(/C=C/C(=O)OCC(=O)NC2CC2)cc(S(=O)(=O)N2CCc3ccccc32)c1OC`: -48.1%; for `COc1cc2[nH]c(=O)n(Cc3ccc(C(=O)NC4CCCC4)cc3)c(=O)c2cc1OC`: 8.5%.
Turning to `CC(C)Cn1cnc2c(c(-c3ccccc3)c(-c3ccccc3)n2Cc2ccco2)c1=N`, the “hERG current change (%, negative = inhibition) at 10uM” value was -73.3%.
For `CC(=O)Nc1ccc(S(=O)(=O)N[C@@H](C)C(=O)N2CCN(C/C=C/c3ccccc3)CC2)cc1`, the “hERG current change (%, negative = inhibition) at 10uM” value is -31.8%.
The same measure for `O=C(NCC1CCCO1)c1ccccn1` (centres unmarked): 6.15%; for `COc1ccc(CCNC(=O)CCCOc2ccc(Cl)cc2)cc1OC`: -15.3%; for `COc1ccc(/C(C)=N/NC2=NCCN2)cc1Cl`: -44.3%.
